# Experimental data reported in PubChem BioAssay AID1240 (Sanford-Burnham Center for Chemical Genomics, 2008).
# About 800 (1.6%) of roughly 50,000 compounds showed an effect of 50% or more. The list shows a part of the results.
# Target: Bcl-2-like protein 10 (Homo sapiens) (UniProt Q9HD36)
# Experiment: Phenotype converters, Bcl-B/TR3 peptide binding displacement, primary biochemical FP (AID 1240);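 also: 0% = Bcl-B with tracer peptide and DMSO and 100% = tracer peptide lacking Bcl-B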
# Details: GST-Bcl-B / FITC-TR3 peptide fluorescence polarization; stronger effect = higher value; compound at 3.75 mg/L
# UniProt Q9HD36, sequence (Q9HD36 whole entry, looked up): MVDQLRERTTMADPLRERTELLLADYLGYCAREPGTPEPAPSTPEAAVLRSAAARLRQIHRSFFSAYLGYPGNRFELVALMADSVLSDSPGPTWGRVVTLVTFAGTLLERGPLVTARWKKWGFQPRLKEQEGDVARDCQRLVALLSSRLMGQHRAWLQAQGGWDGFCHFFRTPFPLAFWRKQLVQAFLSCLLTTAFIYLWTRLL
row,SMILES,displacement [%]
1,COC(=O)c1ccc(NC(=O)CCN2C(=O)c3cccc4cccc(c34)C2=O)cc1,12.3
2,CCC1=NN2C(=N)/C(=C/c3ccc(OC)c(OC)c3)C(=O)N=C2S1,-1.4
3,COc1cc(NC(=O)Cc2cccs2)cc(OC)c1,-6
4,Cc1cc(-c2ccccc2)nc(=S)[nH]1,16.1
5,CC(c1nc2ccccc2n1C)C(O)c1ccccc1 (configuration not stated),-11.4
6,O=C1C2C(c3ccc(Cl)cc3)OC3(C(=O)c4ccccc4C3=O)C2C(=O)N1c1ccc(F)c([N+](=O)[O-])c1 (configuration not stated),5.6
7,COc1cccc2cc(C(=O)Nc3sc4c(c3C#N)CCCC4)c(=O)oc12,2.5
8,CCCC1=NN(C(=O)Cc2ccccc2)C(O)(C(F)(F)F)C1 (configuration not stated),14
9,COc1ccc(Cl)cc1N(CC(=O)N1CCOCC1)S(=O)(=O)c1ccc(C)c([N+](=O)[O-])c1,-9.3
10,O=C1N=c2ccccc2=C1c1[nH]c(=S)[nH]c1O,5.4
11,Cc1ccc2nc(-c3cccs3)c(NC(=O)c3ccc(Cl)cc3)n2c1,10.3
12,COc1ccc(S(=O)(=O)N(CC(=O)N[C@@H]2CCCC[C@H]2O)c2ccc(C)cc2)cc1OC,0.1
13,CCOc1cc(C(=O)NC(c2ccccc2)c2ccccc2)cc(OCC)c1OCC,15.9
14,O=C(NCc1ccc2c(c1)OCO2)c1ccccc1F,14.1
15,O=C(c1ccc(-c2ccc(Br)cc2)o1)N1CCOCC1,-3.1
16,CC(=C\c1ccccc1)/C=C1/SC(=S)N(c2cccc(F)c2)C1=O,0.7
17,O=C(NC(=S)Nc1ccc2oc(-c3cccc4ccccc34)nc2c1)c1ccco1,15.1
18,CC1(C)CC2CC(C)(CN2C(=O)c2cnn3c2NC(c2cccs2)CC3C(F)(F)F)C1 (configuration not stated),5.1
19,CC(=O)C1=C(C)NC(=O)NC1c1ccc(C)cc1 (configuration not stated),-0.9
20,O=C(/C=C/c1ccc([N+](=O)[O-])cc1)Nc1ccc2ccccc2c1,6.3
21,COc1ccc(-c2cc(C(F)(F)F)n3nc(C(=O)NCCc4ccccc4)cc3n2)cc1OC,44.2
22,Cc1ccc(NC(=O)c2cc(C(=O)Nc3ccc(C)c(C)c3)cc(N3C(=O)c4ccccc4C3=O)c2)cc1C,2.6

row,SMILES,displacement [%]
1,c1ccc(C2CCC(N3CCN(C4CCCC4)CC3)CC2)cc1 (configuration not stated),-12.8
2,COCCOC(=O)C1=C(C)NC(=O)NC1c1cccc(OCc2ccccc2)c1 (configuration not stated),3.3
3,COc1cc(C2Nc3ccc4ccccc4c3C3=C2C(=O)CC(C)(C)C3)ccc1OCC(=O)O (configuration not stated),6.1
4,CC(C)c1ccc(NC(=O)C(=O)NCCCN2CCOCC2)cc1,40.6
5,Oc1c(/C=C2/C=Nc3ccccc32)sc(=S)n1Cc1ccccc1,-12.8
6,O=C1NC(=S)N(c2ccccc2F)C(=O)/C1=C/c1ccc(OCc2cccc(C(=O)O)c2)cc1,13.4
7,O=[N+]([O-])c1ccc(/C=N/c2nc3c(s2)CCCC3)cc1,6.6
8,CCOc1ccccc1N(C(C)=O)S(=O)(=O)c1ccc(Cl)cc1,12.2
9,CCOC(=O)C1(C(=O)OCC)C(C(=O)OCC)(C(=O)OCC)C1(C(=O)OCC)C(=O)OCC,9.2
10,Oc1c(C=C2N=c3ccccc3=N2)sc(=S)n1-c1cccc(C(F)(F)F)c1,0
11,NC(=O)N=Nc1c(O)n(Cc2ccccc2)c2ccc(Br)cc12,1.1
12,O=C(Nc1c(Cl)cccc1Cl)c1ccccc1,8.4
13,O=C(/C=C(\O)c1ccc([N+](=O)[O-])cc1)C(F)(F)F,0.2
14,Cc1cccc(NC(=O)CC(c2ccccc2)c2ccccc2)n1,17.2
15,O=C1c2cccc(Cl)c2C(=O)c2cccc(Cl)c21,-1.2
16,COc1ccc(CC(=O)Nc2sc3c(c2C#N)CCCC3)cc1OC,-2
17,CC(C)(Oc1ccc(-c2ccco2)cc1)C(=O)O,16.7
18,CCOc1ccc(NC(=O)CN(c2ccc(Br)cc2)S(C)(=O)=O)cc1,11.8
19,COC(=O)C1=C(C)NC2=C(C(=O)CC(C)(C)C2)C1c1cccs1 (configuration not stated),-2.8
20,CCOC(=O)CCNC(=O)CCNC(=O)C(c1ccccc1)c1ccccc1,1.7
21,CNC(=O)CN(c1cccc(OC)c1)S(=O)(=O)c1ccccc1,0.8
22,COc1c(O)ccc(/C=N/NC(=O)c2cccnc2)c1[N+](=O)[O-],1.2

row,SMILES,displacement [%]
1,COc1ccccc1C(=O)Nc1ccc2c(c1)Cc1ccccc1-2,1.1
2,NC1=NC(=O)C(CC(=O)Nc2ccccc2C(F)(F)F)S1 (configuration not stated),2.8
3,Oc1ccccc1C1=NOC(O)(C(F)(F)F)C1 (configuration not stated),5.1
4,CN1CCc2c(sc3nc(Nc4ccccc4)n(N)c(=O)c23)C1,21.2
5,C=CCc1cc(/C=C2/C(=O)NC(=O)N(c3ccccc3)C2=O)cc(OC)c1O,24.1
6,COc1ccccc1C(=O)NN1C(=O)/C(=C/c2ccc(N(C)C)cc2)SC1=S,10.8
7,NNc1nc2sc3c(c2c(=O)n1Cc1ccccc1)CCC3,-7.1
8,Cc1ccc(NC(=O)C(C)N2C(=O)c3ccccc3C2=O)c([N+](=O)[O-])c1 (configuration not stated),12.9
9,O=C(Nc1cc(Cl)cc(Cl)c1)c1cccc(Cl)c1Cl,11.2
10,O=C1S/C(=C\c2ccc(O)cc2)C(=O)N1Cc1ccccc1,-1.7
11,COC(=O)C1=NN(C(=O)c2ccccc2)C(O)(c2ccc([N+](=O)[O-])cc2)C1 (configuration not stated),7.3
12,Cc1ccc(C)c(N=C2NC(=O)/C(=C/c3ccc(N4CCOCC4)cc3)S2)c1,-38
13,COc1ccc(CNC(=O)Cn2nc(C)c([N+](=O)[O-])c2C)cc1,-1.4
14,COc1ccc(NS(=O)(=O)c2cccs2)cc1OC,0.8
15,Cc1ccc(NC(=O)CC2S/C(=N\N=C3/CCCc4ccccc43)NC2=O)cc1Cl (configuration not stated),-4.5
16,COC(=O)c1cc(C(=O)Nc2cc(C(=O)OC)ccc2C(=O)OC)cc([N+](=O)[O-])c1,3.7
17,O=c1[nH]c(-c2ccncc2)nc2ccccc12,-1.5
18,O=C(O)C1CCCCC1C(=O)Nc1nc(-c2ccc(Br)cc2)cs1 (configuration not stated),-8.6
19,CC(C)NC(=O)CSc1nc2ccccc2[nH]1,7.1
20,CC(=O)Nc1ccc(S(=O)(=O)Nc2c(C)cc(C)cc2C)cc1,-14.9
21,O=C(Cc1ccccc1)Nc1ccc2nn(-c3cccc4ccccc34)nc2c1,19.4
22,C=CCc1cccc2cc(C(=O)Nc3ccc(Cl)c(Cl)c3)c(=O)oc12,1.4

row,SMILES,displacement [%]
1,CCOCCP(=O)(c1ccccc1)c1ccccc1,16.9
2,O=C(c1ccccc1)N1CC[C@H](O)[C@@H]2CCCC[C@H]21,-9.8
3,COc1ccc(Nc2ncnc3ccc(Br)cc23)cc1,5.6
4,O=C1NC(=O)N(c2ccccc2)C(=O)C1C(c1ccccc1)c1ccccc1 (configuration not stated),-6.1
5,CN(C)/C=C1\C(=O)N(c2ccc([N+](=O)[O-])cc2)N=C1c1ccccc1,-7.4
6,CC(Sc1ccc(Cl)cc1)C(=O)O (configuration not stated),-9.1
7,COC(=O)c1c(C)oc2cc(Br)c(OC(=O)c3cccc([N+](=O)[O-])c3)cc12,8.8
8,O=C(Nc1ccc(Cl)cc1)Nc1nnc(Cc2cccc(Br)c2)s1,16.6
9,CC(=O)Oc1ccc(N2C(=O)CC(Sc3ccccc3C(=O)O)C2=O)cc1 (configuration not stated),-5.1
10,Cc1ccc(N2C(=O)NC(=O)/C(=C\c3ccc(I)cc3)C2=O)cc1,8.2
11,COCc1ccc(C(=O)Nc2ccccc2C(=O)O)o1,-1.7
12,O=C(/C=C/c1cccc([N+](=O)[O-])c1)Nc1cccc(NC(=O)c2ccccc2Cl)c1,-2.9
13,CCOC(=O)c1cnn(-c2ccccc2)c1NC(=O)c1ccccc1,2.4
14,O=C(NCc1ccc2c(c1)OCO2)C(=O)Nc1cccc(Cl)c1Cl,-2.3
15,O=[N+]([O-])c1cccc(Nc2ncnc3ccccc23)c1,-3.2
16,CC(C)C(=O)N1N=C(c2ccncc2)CC1(O)C(F)(F)F (configuration not stated),-0.7
17,COc1ccc(S(=O)(=O)Nc2cccc(C)c2)cc1OC,7.1
18,Oc1ccc(N=Cc2ccc(O)c(O)c2)cc1,31
19,CCOc1ccc2c(c1)-c1c(ssc1=S)C(C)(C)N2C(=O)CC,-9.8
20,COc1ccc(NC(=O)C2=C(C)NC(=O)NC2c2ccc(Br)cc2)cc1 (configuration not stated),3.8
21,Cc1c(C(N)=O)c(N)c(C(=O)c2ccccc2)n1-c1ccccc1,-8.5
22,COc1ccc(/C=C(/NC(=O)c2ccco2)C(=O)Nc2ccc(C(C)=O)cc2)cc1,-2.4

row,SMILES,displacement [%]
1,O=C(/C=C/c1cccc([N+](=O)[O-])c1)Nc1cccc(F)c1,-1.2
2,O=C(O)CC1S/C(=N\N=C\c2ccc([N+](=O)[O-])cc2)NC1=O (configuration not stated),-5.9
3,O=S(=O)(NNc1ccccc1)c1ccc2ccccc2c1,15.7
4,COc1cccc(C(=O)Nc2ccc(S(=O)(=O)Nc3onc(C)c3C)cc2)c1,-5.1
5,NS(=O)(=O)c1ccc(N=C2NC(=O)CS2)cc1,11.9
6,COc1ccc(OCC(=O)Nc2cc(OC)cc(OC)c2)cc1,-11.7
7,CCOC(=O)c1ccc(N2NC(=O)/C(=C/c3ccc(OCc4ccccc4)c(OC)c3)C2=O)cc1,-1
8,CCN1C(=O)/C(=C\c2ccccc2)C(C(=O)OC)=C1C,-23.3
9,O=c1cc(-c2ccc(Br)cc2)oc2ccccc12,-12.5
10,O=C(Nc1ccc(Cl)c(Cl)c1)Nc1nnc(-c2ccccc2Br)s1,19.1
11,COc1ccc(N(CC(=O)Nc2cccc(Cl)c2)S(C)(=O)=O)c(OC)c1,15.1
12,CCOc1cc(C=C2C(=O)NC(=S)NC2=O)ccc1OCCSc1cccc2ccccc12,-11.7
13,COc1cccc(N(CC(=O)Nc2ccc(OC)cc2OC)S(=O)(=O)c2ccccc2)c1,-9
14,O=C(O)CCN1C(=O)/C(=C/c2cccc(OCc3ccccc3)c2)SC1=S,11.9
15,COc1ccc(C(=O)Nc2ccccc2C(N)=O)cc1[N+](=O)[O-],11.1
16,COc1ccc(N2C(=O)/C(=C\c3cccc(OC)c3O)SC2=S)cc1,11.8
17,Cc1ccc(/C=N/N=C(c2ccccc2)c2ccccc2)o1,9.9
18,COc1ccc(NC(=O)c2ccc(N3C(=O)CCC3=O)cc2)cc1,8.7
19,Nc1nc(Nc2nc(N3CCCC3)cc(C(F)(F)F)n2)cc(C(F)(F)F)n1,12
